# Data reported in PubChem BioAssay AID624296 (National Center for Advancing Translational Sciences (NCATS), 2012).
# Among all 350,000 compounds or so, about 9,900 (2.8%) were called active. Inconclusive results, whose numbers are uncertain, are shown with a selection of clear calls. The call rests on the fitted dose curve; in most records, active means well fitted activation curve with a large enough effect; inconclusive means small, poorly fitted or top-dose-only effect; inactive means no such curve, though single readings can be large or run the other way. Potencies of inconclusive entries are left out as doubtful fits.
# Assay: A quantitative high throughput screen for small molecules that induce DNA re-replication in MCF 10a normal breast cells. Further: nearly all actives have a fitted effect of over 50% in size. On activity, positive = re-replication: % of control where 0% means no effect.
# Conditions: MCF 10A DNA re-replication, Hoechst nuclear intensity, 48 h; activity, positive = re-replication: at 46.1 µM (top of the series)
# Potency means the concentration at half of the fitted maximal effect; tags describe the fitted curve by direction and shape.
SMILES,"activity, positive = re-replication",Potency
O=C(Nc1ccnn1C1CCN(C(=O)c2cnsn2)CC1)c1cccc(F)c1,inactive: -0.703%,
Cc1ccccc1N1CCN(c2ncnc3scc(-c4cccs4)c23)CC1,,"inconclusive [activator, full curve]"
Cc1ccc(S(=O)(=O)N2CCN(c3ncnc4sccc34)CC2)cc1,inactive: 8.18%,
CC[C@@H]1CCCCc2ccccc2[C@H](C(=O)C[C@H](O)CC(C)=O)OC1=O,inactive: -6.08%,
CSc1ccc(Cl)c(C(=O)Nc2ccc(C)cn2)c1,,"inconclusive [activator, single point]"
Cc1csc(NC(=O)c2ccc[nH]c2=O)n1,inactive: 7.49%,
CC(Oc1ccc(Br)cc1)C(=O)NC1CCCCCC1 (stereo unspecified),inactive: -2.6%,
Cc1nnc2c3ccccc3c(-c3cccc4ccccc34)nn12,,"inconclusive [activator, partial curve]"
COc1ccccc1-n1cnnc1SCC(=O)NC1CCCCC1,inactive: 2.8%,
O=C1CCSc2ccc(Cl)cc2N1Cc1cccc(Cl)c1,,"inconclusive [activator, single point]"
C=CCn1cccc(/C=C/C(=O)c2ccc(C(C)(C)C)cc2)c1=S,,active: 13 µM
Cc1cc(C)n(C(=O)Cn2nc(C)c(Br)c2C)n1,inactive: 5.16%,
CC(C)OC(=O)CSc1nc(Cc2ccccc2)nc2ccccc12,,"inconclusive [activator, single point]"
COc1ccc(-c2cc(=O)c3c(C)cc(O)cc3o2)cc1,inactive: -4.09%,
CC(=O)Nc1cccc(NC(=O)CSc2ccc(-c3ccco3)nn2)c1,inactive: -33.3%,
Cc1cccc(NC(=O)c2nc[nH]c2C(=O)N2CCN(C(=O)OC(C)(C)C)CC2)c1,inactive: -3.5%,
N#Cc1ccsc1NC(=O)CN(Cc1ccccc1)Cc1ccccc1,,"inconclusive [activator, single point]"
O=C(NCc1ccccc1CN1CCCC1)c1cc2ccccc2o1,,"inconclusive [activator, single point]"
COc1cc(C(=O)C(=O)c2ccc(OC)c(OC)c2)ccc1O,inactive: -0.965%,
O=C(COc1ccc(/C=N/NC(=O)C(=O)N2CCCCCC2)cc1)Nc1ccccc1Cl,,"inconclusive [activator, full curve, poor fit]"
O=C(Nn1cnnc1)c1ccc(Cl)cc1,inactive: -0.805%,
O=C(NC1CCCCC1)C(c1ccccn1)N(C(=O)c1csnn1)c1ccccc1F (stereo unspecified),inactive: -15.1%,
Cc1ccc(Nc2nc(C(=O)N3CCC(C(=O)NCc4ccccc4)CC3)cs2)cc1,,"inconclusive [activator, single point]"
CCCCc1ccc(NC(=O)c2cnccn2)cc1,inactive: -0.0066%,

SMILES,"activity, positive = re-replication",Potency
Cc1cccc(N2CCN(C(=O)CCn3c(=S)[nH]c4cc5c(cc4c3=O)OCO5)CC2C)c1 (stereo unspecified),,"inconclusive [activator, partial curve]"
CN(c1ccc(F)cc1)S(=O)(=O)c1ccc(Cl)c(C(=O)Nc2ccncc2)c1,,"inconclusive [activator, partial curve, poor fit]"
Clc1ccccc1-c1nnc2sc(-c3ccc4c(c3)OCO4)nn12,,"inconclusive [activator, full curve, poor fit]"
CCOC(=O)c1c(-c2ccc(C)o2)csc1NC(=O)CN1CCCCC1,,active: 23.1 µM
Cc1c(NC(=O)CSc2nnnn2Cc2ccccc2)c(=O)n(-c2ccccc2)n1C,inactive: -1.47%,
Cc1ccc(Cn2cccc(-c3nc4ccccc4s3)c2=O)cc1,,"inconclusive [activator, full curve, poor fit]"
C=CCSC1=N/C(=C\c2sccc2C)C(=O)S1,,"inconclusive [activator, single point]"
CSc1nc2nccc(/C=C\c3ccccc3)n2n1,,"inconclusive [activator, single point]"
O=C(CCCCl)NC(=S)Nc1cc(C(F)(F)F)ccc1N1CCOCC1,,"inconclusive [activator, single point]"
CCN1C(=O)[C@@H]2[C@H](C1=O)[C@@H]1C[C@H]3C(=O)N(CC)C(=O)[C@H]3[C@@H]3C1=C(C(=O)N1C(=O)OC(=NCC4CC4)[C@]31C)[C@@H]2C,inactive: 28.5%,
S=C(NC12CC3CC(CC(C3)C1)C2)N1CCCC1,,"inconclusive [activator, partial curve, poor fit]"
CC1CCCC(NC(=O)CNC(=S)N(Cc2ccccc2)Cc2cccs2)C1C (stereo unspecified),,active: 13 µM
Cc1cc(Cl)ccc1C(=O)C1CCCN(C(=O)c2cc(C(C)C)no2)C1 (stereo unspecified),inactive: 13.3%,
COc1cc(C)ccc1OCCCOc1ccccc1Cl,,"inconclusive [activator, partial curve]"
COc1cccc(N/C(SCc2ccccc2F)=C(/C#N)C(=O)NCc2cccs2)c1,,"inconclusive [activator, partial curve, poor fit]"
Cc1ccc(S(=O)(=O)N2CC(C(=O)O)Oc3ccccc32)cc1 (stereo unspecified),inactive: 0.446%,
Cc1[nH]c2ccccc2c1-c1csc(NC(=O)CSCCO)n1,,"inconclusive [activator, partial curve, poor fit]"
CCOC(=O)c1cnc(Nc2nc3ccccc3o2)nc1CN1CCN(C)CC1,,"inconclusive [activator, single point]"
CC(NCC(=O)Nc1cc(Cl)cc(Cl)c1)c1ccccc1 (stereo unspecified),,"inconclusive [activator, partial curve, poor fit]"
CCOc1ccc(S(=O)(=O)n2nc(C)cc2C)cc1,,"inconclusive [activator, single point]"
CC1(C)C2CCC1(C)C(OCC[N+](C)(C)CC(=O)OC1CCCCC1)C2 (stereo unspecified),,"inconclusive [activator, single point]"
CC1(C)CC(NC(=O)C(C)(C)Oc2ccc(Cl)cc2)CC(C)(C)N1,,"inconclusive [activator, partial curve, poor fit]"
C=C(C)C1CC=C(C)/C(=N/NC(=O)CCC(=O)Nc2ccccc2Cl)C1 (stereo unspecified),inactive: 23.2%,
CN(C)c1cccc(C(=O)OC(C(=O)Nc2ccc(Cl)cc2C(F)(F)F)c2ccccc2)c1 (stereo unspecified),,"inconclusive [activator, single point]"

SMILES,"activity, positive = re-replication",Potency
CCCn1nc(C(=O)Nc2cc(S(=O)(=O)Nc3ccc(OC)cc3)ccc2O)c2ccccc2c1=O,,"inconclusive [activator, single point]"
CC(C)C(NC(=O)/C(=C\c1ccco1)NC(=O)c1ccco1)C(=O)O (stereo unspecified),,"inconclusive [activator, full curve, poor fit]"
C=CCCN(C1CCCC1)S(=O)(=O)c1ccccc1Br,,"inconclusive [activator, partial curve, poor fit]"
CCOC(=O)c1c(O)c(Cl)c(C)[nH]c1=O,inactive: -2.34%,
Clc1ccc(-c2ccc(C=Nc3ccc(N4CCOCC4)cc3)o2)cc1,,"inconclusive [activator, single point]"
COc1ccccc1N/C=C(\C#N)c1nc2ccccc2[nH]1,,"inconclusive [activator, single point]"
Cc1ccc(-n2c(SCC(=O)NCc3ccco3)nc3c(sc4ccccc43)c2=O)cc1,,"inconclusive [activator, partial curve]"
CCOC(=O)Cn1cc(/C=N/NC(=O)CC#N)c2ccccc21,inactive: 0.235%,
Cc1csc(NC(=O)c2cc(C)nc3ccccc23)n1,inactive: -1.14%,
COc1ccc(CCNC(=O)CSc2ccsc2[N+](=O)[O-])cc1OC,inactive: 2.39%,
COc1ccc([C@H]2CC(=O)C=C(c3ccc4c(c3)OCO4)C2)cc1OC,,"inconclusive [activator, single point]"
CC(C)N(C(=O)[C@H]1C[C@H](CC(=O)NCCc2ccccn2)C(=O)N2CCc3c([nH]c4cc(-c5ccco5)ccc34)[C@]12C)C(C)C,,"inconclusive [activator, single point]"
C=CCn1c(SCc2cc(=O)n3ccsc3n2)nc2ccccc2c1=O,,"inconclusive [activator, partial curve, poor fit]"
COc1cc(/C=C2\SC(=S)N(CCC(=O)Nc3ccccn3)C2=O)cc(OC)c1OC,,"inconclusive [activator, partial curve, poor fit]"
COc1ccc(S(=O)(=O)N2CCC(C(=O)Nc3ccccc3C)CC2)c2cccnc12,inactive: 4.1%,
Cn1c(=O)c2c(nc(Br)n2C/C=N/NC(N)=S)n(C)c1=O,,"inconclusive [activator, single point]"
CCOC(=O)c1[nH]cnc1C(=O)N1CCN(C(=O)OC(C)(C)C)CC1,,"inconclusive [activator, partial curve, poor fit]"
CCOc1ccccc1CN(Cc1ccco1)S(=O)(=O)c1ccc(-n2cnnn2)c(OC)c1,,"inconclusive [activator, single point]"
Nc1c(Cl)cc(N=Nc2ccccc2)cc1Cl,,active: 23.1 µM
Cc1ccccc1C(=O)N1CCN(c2ccc(NC(=O)c3ccco3)cc2Cl)CC1,,"inconclusive [activator, single point]"
CC(C)C1COS(=O)(=O)NC1CC(=O)SC(C)(C)C (stereo unspecified),,"inconclusive [activator, single point]"
COc1ccccc1S(=O)(=O)NCc1ccc(C(=O)NC2CCC(O)CC2)cc1 (stereo unspecified),,"inconclusive [activator, partial curve, poor fit]"
O=C(Cc1csc(Nc2nc(=S)[nH]c3ccccc23)n1)NCc1ccc(Cl)cc1,,active: 16.4 µM
